Test results published in the supplement of paper PMC4967469.
By IC50 is meant the dose at which the fit gives 50% viability; fits outside the tested doses are given as limits. AUC is the area under the same curve over the 256-fold range up to the top dose, as a fraction; it is 1 without any effect and falls as sensitivity rises. For some of these results: Where the top dose is marked as inferred, it is not printed in the source and was worked back from the curve model. For some of these results: Drugs with an entry number were screened twice under separate entries, and the two screens often disagree.

Legend:
Test in all cases: Viability of human cancer cell lines after 72 h of drug (GDSC screen)
EX-527 = compound: NC(=O)C1CCCc2c1[nH]c1ccc(Cl)cc21 [EX-527]; conditions: top dose 20 µM
Experimental: (§1)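 Human cancer cell lines in 384-well plates, medium with 10% serum, drug for 72 h over a 256-fold dose range (nine 2-fold or five 4-fold steps up to the top dose). Adherent lines were fixed and stained with the nucleic acid dye Syto60, suspension lines read with resazurin; signal relative to control wells, capped at 0 and 100%. One two-parameter sigmoid per drug and line, fitted in a mixed model over all curves with the slope shared within a line.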

AZ628 = compound: Cc1ccc(NC(=O)c2cccc(C(C)(C)C#N)c2)cc1Nc1ccc2ncn(C)c(=O)c2c1 [AZ628]; conditions: top dose 4 µM; top dose inferred
Experimental: as §1

YM201636 = compound: Nc1ccc(C(=O)Nc2cccc(-c3nc(N4CCOCC4)c4oc5ncccc5c4n3)c2)cn1 [YM201636]; conditions: top dose 5.12 µM; top dose inferred
Experimental: as §1

AS601245 = compound: N#CC(c1ccnc(NCCc2cccnc2)n1)c1nc2ccccc2s1 [AS601245]; conditions: top dose 8 µM; top dose inferred
Experimental: as §1

AZD6244 = compound: Cn1cnc2c(F)c(Nc3ccc(Br)cc3Cl)c(C(=O)NOCCO)cc21 [AZD6244]; conditions: top dose 4 µM; screen: GDSC drug entry 1498; top dose inferred
Experimental: as §1

Cell Line	AUC (EX-527)	IC50 (EX-527) [µM]	AUC (AZ628)	IC50 (AZ628) [µM]	AUC (YM201636)	IC50 (YM201636) [µM]	AUC (AS601245)	IC50 (AS601245) [µM]	AUC (AZD6244)	IC50 (AZD6244) [µM]
MMAC-SF (melanoma, adherent)	0.987	> 20	0.309	0.0711	0.987	> 5.12	0.907	> 8	0.223	0.0372
MN-60 (B-cell leukaemia, suspension)	0.974	> 20	0.986	> 4	0.904	> 5.12	0.944	> 8	0.987	> 4
MOLM-13 (acute myeloid leukaemia, suspension)	0.98	> 20	0.688	0.807	0.809	2.47	0.81	3.9	0.889	> 4
MOLP-8 (myeloma, suspension)	0.979	> 20	0.658	0.672	0.875	4.7	0.837	5.05	0.853	2.93
MOLT-4 (lymphoblastic leukaemia, suspension)	0.991	> 20	0.935	> 4	0.859	3.04	0.92	> 8	0.966	> 4
MONO-MAC-6 (acute myeloid leukaemia, suspension)	0.937	> 20	0.906	> 4	0.819	3.13	0.834	5.66	0.923	> 4
MPP-89 (mesothelioma, adherent)	0.981	> 20	0.78	2.2	0.942	> 5.12	0.796	5.1	0.932	> 4
MRK-nu-1 (breast, suspension)	0.99	> 20	0.945	> 4	0.851	3.43	0.874	6.72	0.976	> 4
MS-1 (small cell lung carcinoma, suspension)	0.991	> 20	0.975	> 4	0.887	4.67	0.942	> 8	0.99	> 4
MV-4-11 (leukaemia, suspension)	0.984	> 20	0.79	1.45	0.964	> 5.12	0.652	1.21	0.776	1.31
MZ1-PC (pancreas, adherent)	0.98	> 20	0.497	0.245	0.861	> 5.12	0.796	4.83	0.726	1.3
MZ2-MEL (melanoma, adherent)	0.977	> 20	0.617	0.555	0.762	2.13	0.839	6.88	0.815	2.7
MZ7-mel (melanoma, adherent)	0.978	> 20	0.43	0.16	0.833	3.48	0.874	> 8	0.392	0.125
Mo-T (hairy cell leukaemia, suspension)	0.98	> 20	0.988	> 4	0.823	3.11	0.929	> 8	0.95	> 4
NALM-6 (B-cell leukaemia, suspension)	0.989	> 20	0.963	> 4	0.596	0.559	0.772	2.6	0.978	> 4
NAMALWA (Burkitt lymphoma, suspension)	0.991	> 20	0.936	> 4	0.82	2.35	0.944	> 8	0.984	> 4
NB1 (neuroblastoma, semi-adherent)	0.97	> 20	0.892	> 4	0.89	> 5.12	0.863	> 8	0.924	> 4
NB5 (neuroblastoma, adherent)	0.982	> 20	0.765	1.48	0.801	2.53	0.929	> 8	0.759	1.41
NB6 (neuroblastoma, adherent)	0.984	> 20	0.984	> 4	0.899	> 5.12	0.975	> 8	0.939	> 4
NB7 (neuroblastoma, adherent)	0.982	> 20	0.94	> 4	0.862	4.7	0.826	5.14	0.907	> 4
NB10 (neuroblastoma, adherent)	0.984	> 20	0.911	> 4	0.923	> 5.12	0.919	> 8	0.777	1.57
NB12 (neuroblastoma, adherent)	0.963	> 20	0.97	> 4	0.932	> 5.12	0.96	> 8	0.504	0.257
